# Laboratory results: PubChem BioAssay AID2202238 (Ras Initiative Chemistry Research Team, Frederick National …, 2025)
# Some of the results follow. The main result of the screen is listed elsewhere. These columns were measured beside it and carry no call.
# Target: GTPase KRas (Homo sapiens) (UniProt P01116)
# Assay: Fragment capture on engineered cysteines, share of protein labelled (AID 2202238)
# Parameters: protein at 5 µM with 500 µM competing thiol for 1.5 h
# Details: KRAS G12D cysteine mutants, disulfide tethering, MALDI-TOF labeling, stronger effect = higher value, fragment at 500 µM
# [1] = measured here: G75C mutant labeling
# [2] = measured here: H94C mutant labeling
# [3] = measured here: I36C mutant labeling
# [4] = measured here: L120C mutant labeling
# [5] = measured here: M67C mutant labeling
# [6] = measured here: M72C mutant labeling
# [7] = measured here: N86C mutant labeling
# [8] = measured here: P121C mutant labeling
# [9] = measured here: S122C mutant labeling
# [10] = measured here: S136C mutant labeling
# [11] = measured here: G60C mutant labeling
# [12] = measured here: N26C mutant labeling
# Chain of UniProt P01116 (P01116 whole entry, looked up, the tested form may be a part): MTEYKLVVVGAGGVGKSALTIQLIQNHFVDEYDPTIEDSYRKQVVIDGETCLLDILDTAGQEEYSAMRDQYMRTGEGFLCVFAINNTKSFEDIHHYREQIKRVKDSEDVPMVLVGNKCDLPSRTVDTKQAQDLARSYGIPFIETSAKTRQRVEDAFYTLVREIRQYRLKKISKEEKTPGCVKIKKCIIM
SMILES,percent labeling [1],percent labeling [2],percent labeling [3],percent labeling [4],percent labeling [5],percent labeling [6],percent labeling [7],percent labeling [8],percent labeling [9],percent labeling [10],percent labeling [11],percent labeling [12]
O=C(NCCS)C1CN(C(c2ccccc2)c2ccccc2)C1,6.6%,17.6%,15.4%,11.4%,26.9%,16.5%,12.8%,10.9%,9.1%,41.2%,,
O=C(NCC1CCCCN1C(=O)CCS)c1ccccc1 (centres undefined),11.7%,39.9%,37.6%,31.1%,46.3%,29%,20%,36.5%,33.4%,64.3%,,
O=C(CCCc1ccc(F)c(F)c1)NCCS,19.4%,27.3%,22.6%,24.1%,22%,36.6%,16%,25.1%,20.8%,36.6%,47.3%,37%
O=C(CNC(=O)Cc1ccc(O)cc1)NCCS,11.4%,26.7%,23%,43%,31.4%,20.8%,31.7%,26.9%,27.9%,32.7%,26.6%,36.6%
Cc1csc2nc(CC(=O)NCCS)cn12,14.8%,24.2%,15.8%,38.3%,21.5%,37.3%,17.5%,31%,17.5%,48.9%,32%,32.6%
O=C(NCCS)c1cc(Cc2ccccc2)[nH]n1,19%,16.3%,14.4%,26.9%,25.5%,38.7%,13.2%,14.5%,13.7%,28.7%,21.8%,35.3%
O=C(CCS)Nc1ccccc1Oc1cccc(F)c1,13.4%,24.6%,24.7%,19.1%,20.5%,32.7%,12.7%,18.4%,14.6%,33.7%,,
CC(C)(C)OC1CC(CC(=O)NCCS)C1(C)C (centres undefined),13%,31.2%,20.8%,33.4%,30.7%,21.3%,23.5%,29.6%,30.7%,48.3%,32.3%,35.1%
O=C(CCc1nnc(C2CC2)n1-c1ccccc1)NCCS,13.4%,31.8%,24.6%,40.7%,33.8%,18.5%,18%,28%,24%,63.7%,38.3%,29.7%
COc1ccc(C(=O)NCCS)cc1-n1cnnn1,14.4%,23.1%,25.5%,36%,31.1%,49.6%,21%,23.4%,25.6%,37.6%,25.5%,42.7%
O=C(NCCS)c1cccc(NC(=O)c2ccc(Br)cc2)c1,0%,2.2%,4.9%,0%,0%,4.7%,0%,0%,0%,5.6%,6%,19.8%
O=C(CCS)N1CCC2(C=Cc3ccccc3O2)CC1,21.1%,29.9%,24.1%,23.8%,40.4%,33%,17.4%,24.6%,17%,37.1%,,
CN1CCN(Cc2ccc(NC(=O)CCS)c(F)c2)CC1,18.7%,41.3%,50.8%,33.4%,49.3%,44.4%,52.4%,31%,37.3%,55.2%,,
N#CCc1ccc(S(=O)(=O)N2CCC(C(=O)NCCS)CC2)cc1,9%,16.2%,17.5%,15%,18.6%,15.1%,15.5%,17%,15.2%,23.2%,20.9%,34.5%
O=C(CCS)N1CCN(Cc2coc(-c3ccccc3)n2)CC1,22.8%,33.6%,51.5%,34%,60%,26.9%,20.4%,32.8%,28.8%,49.5%,,
O=C(CCS)NCCNc1ncnc2sccc12,21.5%,34%,54.3%,39.3%,43.3%,38.5%,33.7%,34.8%,31.4%,52.5%,,
O=C(NCCS)C1CCOC2(CCOCC2)C1 (centres undefined),10.3%,27.2%,20.7%,24.5%,27.5%,9.6%,17.8%,29.2%,30.9%,38.1%,25.2%,29.4%
NC(=O)c1cc(O)ccc1NC(=O)CCS,17.7%,30%,36.4%,33.8%,29.1%,33.6%,32.7%,39.1%,40.7%,43.6%,,
Cc1cc(COc2ccc(C(=O)NCCS)cc2Br)no1,11.5%,8.3%,3.5%,9.4%,4.3%,19.1%,0%,5.9%,4.2%,7.3%,29.5%,16.7%
CN(Cc1cnn(Cc2ccccc2)c1)C(=O)CCS,13.6%,39.3%,40.3%,37.7%,53.7%,37.8%,22.2%,35.9%,37.5%,60.8%,,
O=C(NCCS)c1nc2n(c1Cl)CCCC2,23.9%,34.8%,23.7%,41%,39.7%,64.7%,29%,30.1%,30.4%,49.5%,42.3%,39.9%
Cn1nc(C2CCCN(C(=O)CCS)C2)nc1N (centres undefined),9%,25.6%,30.3%,31.2%,33.7%,13.4%,13.3%,27.4%,33.8%,49.6%,,
O=C(CCS)N1CCSc2c([nH]c3ccccc23)C1,13.8%,22.7%,27%,23.7%,33%,25.8%,20.7%,22.7%,14.7%,27.7%,,

SMILES,percent labeling [1],percent labeling [2],percent labeling [3],percent labeling [4],percent labeling [5],percent labeling [6],percent labeling [7],percent labeling [8],percent labeling [9],percent labeling [10],percent labeling [11],percent labeling [12]
O=C(CCS)N1CCN(c2cccs2)C(=O)C1,13.4%,26.5%,36.4%,25.3%,27.9%,29.8%,14.1%,35%,27.6%,49.3%,,
O=C(CCn1nc2ccccn2c1=O)NCCS,3.6%,20%,21.5%,29.3%,25.2%,7.6%,16.6%,26.7%,24.4%,32.5%,16.7%,24.9%
O=C(Cc1coc(-c2ccccc2)n1)NCCS,15.7%,19.2%,18.1%,37.5%,28.8%,26.7%,11.4%,21.4%,13.9%,25.7%,29.4%,31.9%
Cc1c(C(=O)NCCS)oc2ccc(Br)cc12,15.7%,14.2%,10.2%,10.8%,9.6%,20.1%,12.6%,14.7%,6.6%,12.2%,49.9%,24.5%
O=C(CCS)NC1CC2(CCC2)Oc2ccc(Br)cc21 (centres undefined),11.7%,20.8%,18.1%,10.3%,17%,25.2%,11.5%,17.8%,4.8%,25.5%,,
CCc1nc2ccc(Cl)cn2c1C(=O)NCCS,26.3%,21.6%,13%,17.2%,17%,42.9%,16.1%,16%,11.3%,26.3%,29.8%,36.5%
COc1c(C)cnc(CN(C)C(=O)CCS)c1C,16.1%,34.2%,39.3%,36.7%,39.5%,23.9%,13.7%,32.4%,28.3%,58.2%,,
CC(C)(C(=O)NCCS)c1cccc(C(F)(F)F)n1,19.1%,31.4%,18.7%,37.7%,29%,32%,27.1%,26%,26.9%,37.2%,42.6%,39.1%
Cn1nc(-c2cccnc2)cc1C(=O)NCCS,32.3%,30.1%,24.2%,18%,29.7%,49.1%,23.6%,28.7%,26.9%,47.4%,38.7%,58.6%
Cc1oc(-c2cnn(C)c2)nc1C(=O)NCCS,18.6%,23.6%,15.9%,39.3%,19.7%,48%,22.4%,21.8%,24.9%,37.7%,45.7%,47%
O=C(CCNC(=O)c1cc(F)ccc1Br)NCCS,14%,33.9%,23.6%,32.7%,31.6%,22.1%,23%,33.3%,29.2%,40.3%,37.1%,37.1%
CC1(CNC(=O)CCS)OCCc2sccc21 (centres undefined),12.1%,38%,35.4%,32.7%,35%,36.8%,16.5%,34.7%,34.3%,54.8%,,
Cn1nccc1C1=CC2CCC(C1)N2C(=O)CCS (centres undefined),9.9%,26.1%,29%,27.4%,41%,15.7%,12.2%,25.9%,24.4%,41.6%,,
O=C(NCCS)C1CC(O)CN1c1ccncn1 (centres undefined),9.9%,26.6%,22.7%,58.3%,27.3%,9%,23.5%,31.1%,28.9%,30.5%,19.1%,30.6%
O=C(NCCS)c1cc(Cl)nn1-c1ncccc1Cl,15.6%,37.9%,27.2%,22.9%,24.1%,44.8%,21.1%,24.1%,20.7%,44.5%,61.6%,38.7%
COC(=O)c1conc1C1CCN(C(=O)CCS)CC1,18.4%,40%,41.4%,43.9%,40.3%,35.6%,28.8%,38%,42.2%,68.8%,,
CCN(CC)Cc1ccccc1CNC(=O)CCS,12.8%,46.3%,54.7%,28.3%,51.9%,22.1%,17.7%,34.6%,34.2%,78.2%,,
Cc1cccc(-c2ccc(C(=O)NCCS)n2C)c1,12.1%,15.4%,6.9%,17.3%,10.6%,71.6%,11.3%,18.6%,8.4%,15.3%,26.6%,22.5%
CC(NC(=O)NCc1ccc(C(=O)NCCS)o1)c1cccs1 (centres undefined),7.9%,17.5%,11.8%,19.7%,13.1%,18.2%,8.1%,10.1%,11%,14.4%,15.7%,21.6%
O=C(Cc1cc(Cl)c2c(c1)OCCCO2)NCCS,22.5%,26%,24.6%,33.5%,28.9%,47.2%,19.8%,20.8%,21.1%,31.9%,44.8%,35.1%
N#Cc1cc(NC(=O)CCS)ccc1OC(F)F,17.8%,22.7%,26.1%,17.7%,23.3%,29.5%,12.8%,18.6%,13.5%,29.2%,,
Cc1nc(C(=O)NCCS)c(-c2ccccc2)s1,13.3%,23.9%,15.9%,27.3%,25%,24.2%,14.6%,15.4%,14.3%,29.5%,43.8%,32.9%
O=C(CC1CCC(C(F)(F)F)CC1)NCCS (centres undefined),14.8%,28.3%,23%,31%,25.6%,26.8%,21.3%,26.4%,26.5%,37.9%,41.2%,34.5%
